Test results taken from PubChem BioAssay AID1645882 (National Center for Advancing Translational Sciences (NCATS), 2021).
The campaign covered roughly 16,000 compounds. About 120 (0.75%) were called active. Inconclusive results (about 4%) are left out. Calls come from the whole dose curve; as a rule, active = well fitted inhibition curve with a large enough effect; inconclusive = small, poorly fitted or top-dose-only effect; inactive = no such curve, though single readings can be large or run the other way. The list shows a part of the results.

What follows are compounds tested against Rap guanine nucleotide exchange factor 3 (Homo sapiens) (UniProt O95398) (assay: Validation qHTS for antagonist of cAMP-regulated guanine nucleotide exchange factor 3 (EPAC1)). Settings: EPAC1 Rap1B-BODIPY-GDP exchange, fluorescence; series mostly up to 150 µM; activity change, negative = inhibition: at the top concentration.
Source text: Assay Provider (PI): Xiaodong Cheng Ph.D.
The University of Texas Medical Branch, […], TX
In multi-cellular eukaryotic organisms, the effects of cAMP are transduced by two ubiquitously-expressed intracellular cAMP receptors, the classic protein kinase A/cAMP-dependent protein kinase (PKA/cAPK) and the more recently discovered exchange protein directly activated by cAMP/cAMP-regulated guanine nucleotide exchange factor (EPAC/cAMP-GEF). Both PKA and EPAC are ubiquitously expressed in all tissues, and an increase in intracellular cAMP levels will lead to the activation of both PKA and EPAC. Therefore, careful dissections of the individual role and relative contribution of EPAC and PKA within the overall cAMP signaling in various model systems are critical for further elucidating the mechanism of cAMP signaling. To date no EPAC-specific antagonists and agonist, as well as isoform-specific agonists have been reported, and developing EPAC-specific pharmacological probes to determine the physiological functions that EPAC play in the overall cAMP-mediated signaling remains a major challenge within the research field. Furthermore, identified regulators of EPAC may lead to new mechanism-based therapeutic strategies specifically targeting the EPAC / cAMP-signaling components as EPAC has been implicated to play important roles in major human pathological conditions such as diabetes, heart disease, and cancer.
This qHTS will be used to screen the Molecular Libraries Small Molecule Repository (MLSMR) as a concentration-titration series using the NCGC unique quantitative screening (qHTS) platform to find activators for EPAC1. In addition, this assay will also be used as a counterscreen for the EPAC2 qHTS. This fluorescent based assay is developed and validated for EPAC1 that measures exchange using EPAC effector Rap1 complex with BODIPY-GDP, a GDP analog with a tethered fluorophores. Activators are identified by monitoring the change in fluorescence signal as the exchanged free BODIPY-GDP has a reduced fluorescence compared to Rap1-bound BODIPY-GDP. Increase in signal (activation) is the desired outcome for the EPAC1 agonist while no activity in this assay is desired for the EPAC2 agonist counterscreen.
[1] de Rooij, J., Zwartkruis, F. J., Verheijen, M. H., Cool, R. H., Nijman, S. M., Wittinghofer, A., and Bos, J.L. (1998) Nature 396, 474-477.
Briefly, three uL of reagents (100 nM EPAC1, 250 nM RAP1B-BODIPY-GDP, 50 uM GDP) were dispensed into a 1536-well Greiner black solid-bottom medium binding assay plate. Controls and test compounds (23 nL) were transferred to the plate via a Kalypsys pin tool equipped with a 1536-pin array. The plates were centrifuged at 1,000 rpm for 15 seconds followed by 5 minute incubation at room temperature. The assay plates were read at 5 minute intervals for 30 minutes in the ViewLux plate reader using 480nm excitation and 540nm emission filters. The results were normalized to the […] positive control ATA and DMSO.
Note: nearly all actives have a fitted effect of over 75% in size.

Sequence of UniProt O95398 (O95398 whole entry, looked up): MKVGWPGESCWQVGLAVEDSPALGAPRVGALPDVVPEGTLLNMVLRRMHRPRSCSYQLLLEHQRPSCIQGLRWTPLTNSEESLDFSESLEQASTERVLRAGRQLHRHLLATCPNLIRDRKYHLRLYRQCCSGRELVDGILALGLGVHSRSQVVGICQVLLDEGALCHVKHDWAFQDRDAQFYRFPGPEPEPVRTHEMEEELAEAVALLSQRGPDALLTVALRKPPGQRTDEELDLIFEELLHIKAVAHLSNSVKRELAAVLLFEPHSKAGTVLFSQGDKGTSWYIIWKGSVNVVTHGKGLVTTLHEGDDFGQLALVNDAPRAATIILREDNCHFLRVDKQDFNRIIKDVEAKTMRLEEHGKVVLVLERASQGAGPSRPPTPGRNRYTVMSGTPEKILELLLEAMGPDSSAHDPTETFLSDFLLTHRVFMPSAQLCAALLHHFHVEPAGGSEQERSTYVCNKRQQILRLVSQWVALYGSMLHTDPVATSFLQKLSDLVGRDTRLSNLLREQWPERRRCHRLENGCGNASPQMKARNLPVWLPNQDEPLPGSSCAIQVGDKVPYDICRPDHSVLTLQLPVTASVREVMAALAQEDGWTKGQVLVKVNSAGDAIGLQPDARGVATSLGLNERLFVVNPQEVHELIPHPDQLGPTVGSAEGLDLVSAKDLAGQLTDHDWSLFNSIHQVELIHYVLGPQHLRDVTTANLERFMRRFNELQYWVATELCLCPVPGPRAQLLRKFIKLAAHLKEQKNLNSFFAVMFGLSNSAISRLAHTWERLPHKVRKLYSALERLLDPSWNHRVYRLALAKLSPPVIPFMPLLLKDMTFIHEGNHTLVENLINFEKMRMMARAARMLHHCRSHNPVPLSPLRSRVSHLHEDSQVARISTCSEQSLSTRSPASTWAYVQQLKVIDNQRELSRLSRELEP

Activity change, negative = inhibition, inactive:
COc1ccc(CCN(C)CCc2ccc(OC)c(OC)c2)cc1OC
CC1(CN2CCC(n3c(=O)[nH]c4ccccc43)CC2)OCc2ccccc2-n2cccc21 (stereo not drawn) -4.28%
CC(CCc1ccc(O)cc1)N1CCOc2c(O)cc(-c3nc4ccccc4s3)cc2C1 (stereo not drawn) -5.36%
O=c1c(-c2ccccc2)nc2cnc(N3CCNCC3)nc2n1Cc1ccc(F)cc1 21.8%
Cc1cc(C)n(CC(=O)N2CCC(n3c(C(C)C)nc4cccnc43)CC2)n1 14.2%
COc1ccc(Oc2ncc3nc(-c4ccc(OC)cc4)c(=O)n(C)c3n2)cc1 7%
CC(C)[C@@H]1CC[C@@H](C)C[C@H]1O 18.8%
COc1ccccc1-c1ccnc(-n2ncc(C(=O)NCCc3cccnc3)c2C)n1 13.8%
CC(C)Oc1cccc(-n2c(CCc3c[nH]c4ccc(Br)cc34)nc3ccccc3c2=O)c1 -14.5%
Cc1cccc(-c2[nH]c(C(C)(C)C)nc2-c2ccc3nccnc3c2)n1 12.9% [at 75.8 µM]
COc1ccc(O)c(CN2CCC3(CCC(CNC(=O)c4ccccc4)O3)CC2)c1 (stereo not drawn) 2.54%
CC[C@@]1(O)C(=O)OCc2c1cc1n(c2=O)Cc2cc3cc(O)ccc3nc2-1
COCCn1c(=O)c(-c2cccs2)nc2cnc(Oc3ccccc3)nc21 0.488%
Cc1ccccc1/C=C/C1=NCCN1 5.55% [at 75.8 µM]
CCCCCCC(=O)O[C@H]1CC[C@H]2[C@@H]3CCc4cc(O)ccc4[C@H]3CC[C@]12C -27.8%
O=C(Nc1cccc(F)c1)N1CCC2(CC1)CCN(C(=O)c1ccncc1)CC2 23.2%
CNc1ncnc2ccc(-c3ccc4c(c3)OCO4)cc12 9.04%
COc1ccc(CN2CCCC(n3cc(C(=O)N4CCCCC4)nn3)C2)c(OC)c1C (stereo not drawn) 4.78%
CC(NC(=O)C1CCOCC1)c1nnc2n1CCN(Cc1ccc3ccccc3c1)CC2 (stereo not drawn) 13.4%
CCC1(C2CCN(Cc3c(C)[nH]c4ccccc34)CC2)NC(=O)N(Cc2ccc3c(c2)OCO3)C1=O (stereo not drawn) -9.73%
CCC(c1ccc(O)cc1)C(CC)c1ccc(O)cc1 (stereo not drawn) -2.15%
NC1(c2ccc(-c3nc4ccn5c(=O)[nH]nc5c4cc3-c3ccccc3)cc2)CCC1 -17.8%
COc1cc(OC)c2c(=O)c(OC)c(-c3ccc(OC)c(OC)c3)oc2c1 19.1%
CN1C2CC(OC(=O)C(CO)c3ccccc3)C[C@@H]1[C@H]1OC21 (stereo partly drawn) 10.2%
COc1ccccc1CNc1ncncc1-c1ccccc1OC -9.04%
O=C(NCc1nnc2n1CCN(Cc1ccnc3ccccc13)CC2)c1cccc(F)c1 17.5%
COc1cccc(-c2ccc3ncnc(N4CCN(C)CC4)c3c2)c1 11.3%
COc1cc(=O)n2c(c1C(=O)NC(C)c1ccco1)CCN(C(=O)c1cn3ccc(C)cc3n1)CC2 (stereo not drawn) 3.82%
CCNc1ncc2nc(-c3ccc(OC)cc3)c(=O)n(C)c2n1 -15.7%
O=c1c(CCc2ccccc2)nc2cnc(N3CCOCC3)nc2n1C1CC1 14.2%
CC(C)NC(=O)N1CCCC2(CCN(C(=O)c3ccco3)CC2)C1 18.4%
CC(=O)NNC(=O)N1Cc2ccccc2Oc2ccc(Cl)cc21
COc1ccccc1C1CN(Cc2cccc(C)n2)Cc2ccccc2O1 (stereo not drawn) -10.8%
CC(=O)NCCNC(=O)c1cnn(-c2nccc(-c3cc(C)sc3C)n2)c1C 6.55%
CNC[C@H](O)c1cccc(O)c1
Cc1c(C(=O)NCCc2ccccn2)cnn1-c1nccc(-c2cccs2)n1 17.3%
N=C(N)SCCc1cnc[nH]1
c1csc(CNc2ccnc(-c3ccoc3)n2)c1 0.924%
C[C@]12CCC(=O)C=C1CC[C@H]1[C@@H]3CC[C@](O)(C(=O)CO)[C@@]3(C)C[C@H](O)[C@@]12F
CSc1nc(N)c2ncn([C@H]3O[C@H](COP(=O)(O)OP(=O)(O)O)[C@@H](O)[C@@H]3O)c2n1 1.41%
CN1C(=O)CC(C)(c2ccccc2)C1=O (stereo not drawn) -3.75%
Cc1c(C(=O)NCC(C)C)sc2ncnc(NCC3CCCO3)c12 (stereo not drawn) 7.47%
CN(C)c1ccc(C=O)cc1Cl 21.5%
CO[C@H]1[C@H](NC(=O)c2ccncc2)c2ccccc2C12CCN(C(=O)c1ccoc1)CC2 18%
CCC(=O)NS(=O)(=O)c1ccc(-c2c(-c3ccccc3)noc2C)cc1 9.39%
CC(O)(COc1ccccc1)c1ccc2c(c1)CN(Cc1cccnc1)CCO2 (stereo not drawn) 23.7%
CCCCCCN(CCCCCC)C(=O)Cc1c(-c2ccc(F)cc2)[nH]c2ccccc12
CCN(CC)CCNC(=O)c1ccc(NC(C)=O)cc1
Cc1noc(C)c1C(=O)N1CCC2(CCCN(Cc3nccs3)C2)CC1 8.9%
N[C@@H](Cc1cnc[nH]1)C(=O)O
CN(C)C(=O)c1ccc(-c2nc(Nc3ccc(F)cc3)c3ccccc3n2)cc1 15.5%
COCCNc1nc(-c2c(C)noc2C)nc2ccccc12 -7.36%
COc1cccc(-c2cc3c(c(OC)c2)OCCN(Cc2ccccc2O)C3)n1 4.45%
NNc1nnc(Cc2ccncc2)c2ccccc12 18.8%
CC[C@H]1CN2CCc3cc(OC)c(OC)cc3[C@@H]2C[C@@H]1C[C@H]1NCCc2cc(OC)c(OC)cc21 -6.16% [at 75.8 µM]
COc1cccc(-c2nc3cc(SC)ccc3cc2CN(C(=O)c2sccc2C)C2CC2)c1 -2.79%
FC(F)(F)c1cc(CN2CCCC3(CCNCC3)C2)cc(C(F)(F)F)c1 4.68%
Cc1ccc(-c2ccnc(-n3ncc(C(=O)NC[C@@H]4CCCN5CCCC[C@H]45)c3C3CC3)n2)o1 10.9%
COc1cccc(-c2nc(NCc3cccnc3)c3ccccc3n2)c1 -5.85%
CCc1cc(C(=O)NCCN2Cc3ccccc3OC(c3ccsc3)C2)n(C)n1 (stereo not drawn) -2.9%
CC(C)(CO)[C@@H](O)C(=O)NCCCO
COc1ccc(NC(=O)N2CC[C@@]3(CCCN(C(C)=O)C3)C2)cc1 27.2%
O=C(c1cc(C(F)(F)F)cc(C(F)(F)F)c1)N1CCC[C@@]2(CCN(c3ccccc3)C2)C1 -6.53%
C=C(C)C1CC[C@]2(CO)CC[C@@]3(C)[C@H](CCC4[C@@]5(C)CCC(O)C(C)(C)C5CC[C@@]43C)C12 (stereo partly drawn) -0.0849%
CCOC(=O)[C@H](CCc1ccccc1)N[C@@H](C)C(=O)N1[C@H](C(=O)O)C[C@H]2CCCC[C@@H]21
CCNc1ncc2nc(-c3cccs3)c(=O)n(C[C@H]3CCCO3)c2n1 24.3%
COc1ccc(C(=O)N(O)c2ccccc2)cc1 17.3%
COc1cccc(Cn2c(=O)c(-c3cc(F)cc(F)c3)nc3cnc(N4CCOCC4)nc32)c1 -1.3%
O=C(O)C1CCC[C@@H]2[C@@H]3CC(CN12)[C@@H]1CCCCN1C3 (stereo partly drawn) 0.445%
COc1cccc(-c2nc(NCc3ccccc3OC)c3ccccc3n2)c1 -11.3%
O=C([C@@H]1C[C@@H](Sc2nc3ccccc3[nH]2)CN1CC1CCCCC1)N1CCOCC1 9.13%
COc1ccc(NC(=O)N2CC[C@@]3(CCCN(S(C)(=O)=O)C3)C2)cc1 10.8%
CCCCC[C@H](O)/C=C/[C@H]1C=CC(=O)[C@@H]1C/C=C\CCCC(=O)O 19.9% [at 15.3 µM]
Cc1ccc(S(=O)(=O)NC(=O)NC2CCCCCCC2)cc1 6.08%
O=C1CCCCN1CCC(=O)N1CCOc2ccc(C(O)C3CCCCC3)cc2C1 (stereo not drawn) 3.64%
COC(=O)[C@H]1[C@H]2C[C@@H]3c4[nH]c5cc(OC)ccc5c4CCN3C[C@H]2C[C@@H](OC(=O)c2cc(OC)c(OC)c(OC)c2)[C@@H]1OC
COc1cc2c(cc1OC)-c1cc3ccc(OC)c(OC)c3c[n+]1CC2 2.1%
COc1cccc(-c2ccc3ncnc(NC4CC4)c3c2)c1 -16.8%
COc1ccccc1N1CCN(c2nc(CNC(=O)c3sc(C)nc3C)nc3ccccc23)CC1 0.951%
CC(C)C[C@H](NC(=O)[C@@H](O)[C@H](N)Cc1ccccc1)C(=O)O
Cc1cc(C(=O)N2CCOc3ccc(CN4CCC(Oc5cccnc5)CC4)cc3C2)c(C)o1 12.1%
O=C(O)CN(CCOCCOCCN(CC(=O)O)CC(=O)O)CC(=O)O
COc1cc([C@@H]2c3cc4c(cc3[C@H](O)[C@H]3COC(=O)[C@H]23)OCO4)cc(OC)c1OC
O=P(O)(O)C(O)(Cc1cnc2ccccn12)P(=O)(O)O 39.9%
CN(C)CCCSc1ccccc1NC(=O)/C=C/c1ccccc1 3.38%
COc1ccc(Oc2ncc3nc(-c4ccccc4)c(=O)n(CCC#N)c3n2)cc1 17.6%
NC(C(=O)O)c1cccc(O)c1 (stereo not drawn) 11.5%
COc1cccc(C(=O)N(Cc2cc3cc4c(cc3nc2N(C)C)OCO4)CC2CCCO2)c1 (stereo not drawn) 0.294%
N[C@H](C(=O)O)[C@H](O)C(=O)O
O=S1(=O)CCOCCCN1Cc1cccc(Cl)c1 -27.4%
CN=C(NC#N)NCCSCc1nc[nH]c1C
O=C(NCCN1Cc2ccccc2OC(c2ccsc2)C1)c1cncs1 (stereo not drawn) 8.94%
COC(=O)[C@@H]1C[C@@H](NC(=O)c2ccc(C(F)(F)F)cc2)CN1Cc1cccc(O)c1 -6.4%
N=C(N)n1cccn1 16%
NCCO 10.9% [at 320 µM]
O=C(c1ccco1)N1CCC2(CCCN(Cc3ccccc3)C2)CC1 17.4%
COc1cccc(C2(CC(=O)N3CCCOc4c(cccc4OC)C3)CC(=O)N(C)C2=O)c1 (stereo not drawn) 6.75%
Cc1ccc2c(CC(=O)N3CCOc4ccc(CN5C[C@@H](C)O[C@@H](C)C5)cc4C3)cc(=O)oc2c1 -1.79%
CC(C)C[C@@H](CO)N(Cc1ccccc1)S(=O)(=O)N(Cc1ccccc1)[C@@H](CO)CC(C)C -25.4%
CCOC(=O)Nc1ccc2c(c1)N(C(=O)CCN1CCOCC1)c1ccccc1S2 -3.84% [at 75.8 µM]
CC(NC(=O)C1CCOCC1)c1nnc2n1CCN(Cc1cc3c(cc1Cl)OCO3)CC2 (stereo not drawn) 0.753%
COCCn1c(=O)c(C)nc2cnc(OC)nc21 15.5%
O=c1c(-c2ccc(O)cc2)coc2cc(O)cc(O)c12
